Data as given in the BET-seq Pho4 binding data (Le et al. 2018).
The other results are listed elsewhere or left out. The energies were worked out here from pooled read counts, against the library average; single values are noisy.

biological target: T1, Pho4 (S. cerevisiae) (UniProt P07270); assay: relative binding free energy (BET-seq); higher = weaker binding; conditions: reference: library average
T1 sequence: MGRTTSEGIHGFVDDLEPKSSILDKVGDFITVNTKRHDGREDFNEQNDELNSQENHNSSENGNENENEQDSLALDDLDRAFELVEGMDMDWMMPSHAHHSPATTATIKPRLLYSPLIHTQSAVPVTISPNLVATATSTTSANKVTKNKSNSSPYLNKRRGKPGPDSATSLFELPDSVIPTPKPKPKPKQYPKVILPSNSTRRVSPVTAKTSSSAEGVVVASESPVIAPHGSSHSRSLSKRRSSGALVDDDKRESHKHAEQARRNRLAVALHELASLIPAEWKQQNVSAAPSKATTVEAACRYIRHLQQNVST

Sequence | relative binding free energy
GTGCCCACGTGTGGGT | 0.01 kcal/mol
TTTTGCACGTGAGGTA | 0.17 kcal/mol
TAGTGCACGTGATCGT | -0.03 kcal/mol
TGGTGCACGTGATGCG | 0.06 kcal/mol
TGTTTCACGTGTCTAC | 0.4 kcal/mol
ATAGTCACGTGAGCGT | 0.25 kcal/mol
ATTTTCACGTGGGCTA | 0.2 kcal/mol
GAAATCACGTGGGATG | 0.11 kcal/mol
AGTGTCACGTGGCAGA | -0.01 kcal/mol
GTATACACGTGGTGTG | 0 kcal/mol
TGCGACACGTGTGAGT | 0.01 kcal/mol
ATCTTCACGTGGGTTA | 0.01 kcal/mol
TCATGCACGTGATGTA | 0.07 kcal/mol
ATGTACACGTGTTCGT | 0.01 kcal/mol
CAGTGCACGTGCGTGG | 0 kcal/mol
GTTAGCACGTGATGCG | 0.1 kcal/mol
TGGCACACGTGGTTGA | -0.01 kcal/mol
AGACTCACGTGGTTTG | 0.11 kcal/mol
GGTCGCACGTGGATTT | 0.13 kcal/mol
TTCTTCACGTGTTTAG | 0.3 kcal/mol
TATCGCACGTGGCGTT | -0.12 kcal/mol
AGAGTCACGTGGGCTA | 0.07 kcal/mol
ATAGTCACGTGACGTG | 0.12 kcal/mol
AGGGTCACGTGGAAGT | 0.2 kcal/mol
GAGAACACGTGGAGTG | -0.02 kcal/mol

Sequence | relative binding free energy
TGTGACACGTGCGGAT | -0.1 kcal/mol
GTATTCACGTGAATAT | 0.24 kcal/mol
AAGGGCACGTGCTTTA | -0.15 kcal/mol
GTGAGCACGTGGCGAG | -0.11 kcal/mol
GGTTTCACGTGGGTTC | 0.35 kcal/mol
TTAAACACGTGGGCTT | 0.02 kcal/mol
GCGTTCACGTGTTCGG | 0.25 kcal/mol
ATGGTCACGTGGGTGC | 0 kcal/mol
GAGATCACGTGTATTT | 0.35 kcal/mol
CGGCTCACGTGGGGTT | -0.1 kcal/mol
GTTTGCACGTGGCTTA | 0.1 kcal/mol
GGTGCCACGTGTGCGA | 0.08 kcal/mol
TTCAGCACGTGTATGG | -0.02 kcal/mol
TGAAGCACGTGCGAGT | -0.09 kcal/mol
CATGTCACGTGGGGAG | -0.09 kcal/mol
AGTTACACGTGGTAGG | 0.11 kcal/mol
TAATGCACGTGGGTGA | -0.11 kcal/mol
GTATGCACGTGGAAAT | 0.17 kcal/mol
TGGAACACGTGTTAGT | 0.11 kcal/mol
ATGTGCACGTGTCGCT | -0.11 kcal/mol
GAGGACACGTGTTTGG | -0.07 kcal/mol
GGTTACACGTGCAGTG | 0.03 kcal/mol
GACAGCACGTGTGGAT | 0.24 kcal/mol
GGGTACACGTGGATTA | 0.14 kcal/mol
ATGTGCACGTGCACGG | -0.09 kcal/mol

Sequence | relative binding free energy
CTTTTCACGTGAGATG | 0.41 kcal/mol
ATTAGCACGTGATAAG | 0.09 kcal/mol
GAGGTCACGTGGGTCT | 0.06 kcal/mol
AGGGGCACGTGAAGGC | 0.09 kcal/mol
CGAGTCACGTGTAGTG | 0.07 kcal/mol
TCGCGCACGTGTGGGG | -0.15 kcal/mol
GGTTTCACGTGTGCAT | 0.32 kcal/mol
GTATTCACGTGTTTCT | 0.2 kcal/mol
TTGTACACGTGTGGAC | 0.06 kcal/mol
GTTTTCACGTGTAGTC | 0.33 kcal/mol
GATTGCACGTGGTGTG | 0.01 kcal/mol
CGCGACACGTGGGGGT | -0.12 kcal/mol
AGTGACACGTGCAGGG | -0.04 kcal/mol
ATAGGCACGTGGGGTC | -0.32 kcal/mol
TGGGACACGTGGGCTG | -0.16 kcal/mol
TGTGGCACGTGGGCCT | -0.3 kcal/mol
GGAATCACGTGGGTTT | 0.04 kcal/mol
GTGGGCACGTGTATGC | -0.06 kcal/mol
TATGCCACGTGGGATG | -0.24 kcal/mol
TAGTGCACGTGGCGAT | -0.05 kcal/mol
TATATCACGTGGGTAC | 0.12 kcal/mol
CGTGTCACGTGGGGAA | -0.14 kcal/mol
ATTGGCACGTGATGCG | -0.01 kcal/mol
TATGACACGTGTAGTT | 0.12 kcal/mol
TGAGGCACGTGTCAGA | -0.01 kcal/mol

Sequence | relative binding free energy
GTGTGCACGTGTCGAT | 0.02 kcal/mol
GTCCGCACGTGGTGTG | -0.16 kcal/mol
GTCATCACGTGGTTTT | 0.15 kcal/mol
AGTAACACGTGAGGAT | 0.1 kcal/mol
GTAAGCACGTGCTGTT | -0.02 kcal/mol
AGTCGCACGTGGAGTT | -0.06 kcal/mol
ATATGCACGTGCAGGG | -0.07 kcal/mol
AGGGGCACGTGCTATG | -0.28 kcal/mol
TTGAGCACGTGGATTA | -0.02 kcal/mol
TTGGACACGTGGGGGT | -0.04 kcal/mol
ATAGACACGTGGGTTA | -0.1 kcal/mol
ATGTGCACGTGATATG | -0.05 kcal/mol
GGTGCCACGTGGAGTG | -0.01 kcal/mol
ATGTCCACGTGTGGGA | 0.05 kcal/mol
TTTATCACGTGAAGGT | 0.27 kcal/mol
CGAGGCACGTGTTATT | -0.13 kcal/mol
AACGTCACGTGAGGTG | 0.3 kcal/mol
AAGGACACGTGGTTCG | 0.04 kcal/mol
AATTTCACGTGTTGAT | 0.13 kcal/mol
GAGTTCACGTGCGGGC | 0.3 kcal/mol
TAAATCACGTGTGTAA | 0.17 kcal/mol
CGGGGCACGTGTCGTA | -0.1 kcal/mol
GTACACACGTGGTGAG | 0.13 kcal/mol
TACTGCACGTGGAGGG | -0.01 kcal/mol
AGAGTCACGTGCGGAG | 0.15 kcal/mol

Sequence | relative binding free energy
TATTACACGTGAGTGA | 0.38 kcal/mol
TAGGACACGTGAGGCG | 0.27 kcal/mol
AATTTCACGTGTCGGT | 0.28 kcal/mol
ATAGGCACGTGGTAAA | -0.13 kcal/mol
TTGGACACGTGGGTTT | 0 kcal/mol
GTGTGCACGTGAGTCA | 0.25 kcal/mol
GCGGACACGTGGTGTG | 0 kcal/mol
AGGTACACGTGCAGTG | 0.08 kcal/mol
GTAGGCACGTGAGATG | 0.1 kcal/mol
AGCGGCACGTGTTGTG | -0.19 kcal/mol
GTGTTCACGTGGTTTT | 0.24 kcal/mol
GTGGTCACGTGCTGAT | 0.15 kcal/mol
CTAAGCACGTGGGTGT | -0.37 kcal/mol
CTGATCACGTGTTTTT | 0.14 kcal/mol
TTGGGCACGTGACTCG | 0.06 kcal/mol
TTAATCACGTGGGACG | 0.07 kcal/mol
AGTTACACGTGGAGCT | 0.12 kcal/mol
TCGGGCACGTGGATAG | -0.05 kcal/mol
CAAGTCACGTGTGTAG | 0.04 kcal/mol
GGTAGCACGTGTACGT | 0.12 kcal/mol
CAAGACACGTGAGGGG | 0.35 kcal/mol
GGAATCACGTGTTCGG | 0.15 kcal/mol
TTTAACACGTGTAGTC | 0.19 kcal/mol
GGGGACACGTGAGGTC | 0.23 kcal/mol
GGCATCACGTGTAAGG | 0.14 kcal/mol

Sequence | relative binding free energy
TGAAGCACGTGAGGGC | 0.19 kcal/mol
AGTAGCACGTGATGGC | -0.13 kcal/mol
TTTTACACGTGTGTTC | 0.13 kcal/mol
TGTGACACGTGTTAGC | 0 kcal/mol
CCGTTCACGTGTGGGG | 0.2 kcal/mol
GCGGACACGTGTTTTG | 0.16 kcal/mol
TAGCGCACGTGGGCTG | -0.35 kcal/mol
ATGATCACGTGGAGCG | 0.09 kcal/mol
TTGGTCACGTGCCGTG | 0.04 kcal/mol
GAGAGCACGTGGGGCG | -0.27 kcal/mol
GACGGCACGTGAGGAG | 0.17 kcal/mol
TTGGGCACGTGGCGCG | -0.21 kcal/mol
CTGGGCACGTGCTGCG | -0.09 kcal/mol
TTGATCACGTGAAGGC | 0.39 kcal/mol
TTGATCACGTGACTGG | 0.3 kcal/mol
GGGGGCACGTGCGTAA | -0.18 kcal/mol
GTGGGCACGTGAGAAA | 0.1 kcal/mol
ATTCGCACGTGGGTTC | -0.08 kcal/mol
TATACCACGTGGTTAG | -0.11 kcal/mol
AGATGCACGTGGGTTA | -0.18 kcal/mol
CTTAGCACGTGGGGAG | -0.12 kcal/mol
